The campaign covered roughly 44,000 compounds. About 340 (0.77%) were called active. Not shown: some 5% with an inconclusive outcome. Calls follow the shape of the dose curve; as a rule, active = well fitted inhibition curve with a large enough effect; inconclusive = small, poorly fitted or top-dose-only effect; inactive = flat fitted curve, though single readings scatter. The list shows a part of the results.
Assay: Acumen qHTS Assay for Inhibitors of the mTORC1 Signaling Pathway in MEF (Tsc2-/-, p53-/-) Cells: Sytravon; also: nearly all actives have a fitted effect of over 50% in size;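 as to activity change, negative = inhibition: plate controls were DMSO for no effect and rapamycin for full effect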
Conditions: phospho-rpS6 immunofluorescence/PI, 24 h; series mostly up to 38.3 µM; activity change, negative = inhibition: at the top concentration
Outline: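 Read-out: phospho-S6 Alexa-488 intensity over PI intensity per well, scored as % active cells using thresholds from rapamycin (7.5 nM) and DMSO controls. Tsc2-/-, p53-/- MEFs exposed to compound for 24 h; PI cell count recorded as viability.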
Potency is read from the fitted curve at half-maximal effect.

Activity change, negative = inhibition, inactive:
CCCCSc1nnc2c(n1)OC(c1ccc(C)s1)Nc1ccccc1-2 (configuration not stated) 12.7%, CCC(CC)c1nn2cc(-c3ccccc3)nc2s1 0.759%, Cc1ccc(N2CCN(S(=O)(=O)c3cc(Br)cc4c3N(C(=O)C3CC3)CC4)CC2C)cc1 (configuration not stated) 12%, CCS(=O)(=O)N1CC(=O)N(c2ccc(C)c(C)c2)C(C)(C(=O)NC2CCCCCC2)C1 (configuration not stated) 0.616%, COc1ccc(-c2cn3c(n2)sc2cc(C(=O)N4CCCCC4)ccc23)cc1 -11.7%, COc1ccc(N2CC(NC(=O)Cc3cccs3)CC2=O)cc1OC (configuration not stated) -13.5%, CCCCOC(=O)c1ccc(NC(=O)/C(C#N)=C/c2ccc(C)o2)cc1 10.7%, CCCCNS(=O)(=O)c1ccc2nc(-c3cccnc3)cc(C(=O)NCCCOCC)c2c1 -0.634%, Cc1ccc(NC(=O)COCc2cc(-c3cccs3)on2)cc1Cl -2.49%, CCOc1ccccc1CNC(=O)CCn1cccn1 0.675%, Cc1[nH]c2ccccc2c1C(=O)C(=O)NC1CC(=O)N(c2ccccc2)C1 (configuration not stated) -1.06%, Cc1cccc(-n2c(SCC(=O)Nc3ccccc3C)nc3c(oc4ccccc43)c2=O)c1 -3.05%, COC(=O)c1ccc(NC(=O)CN(c2cccc(C(F)(F)F)c2)S(C)(=O)=O)cc1 3.81%, CCc1ccccc1N1C(=O)N(C)c2ccccc2S1(=O)=O -12.1%, CSc1nn(Cc2ccc(F)cc2)c(N)c1S(=O)(=O)c1ccc(Cl)cc1 -13.5%, COc1cccc(CSc2nc(-c3ccccc3OC)nc3c2Cc2c(CO)cnc(C)c2O3)c1 -8.08%, CCCN(CCC)CCCNC(=O)C1CCN(S(=O)(=O)c2cccc3nsnc23)CC1 -5.43%, CCOc1ccc(S(=O)(=O)N2CCN(c3ccc(C)cc3C)CC2)c2ccccc12 -1.43%, O=C1COc2ccc(-c3cc(-c4ccc(F)cc4)c4c(n3)-c3ccccc3OC4)cc2N1 1.47%, CCN(C(=O)c1ccc2c(=O)n3c(nc2c1)CCCCC3)c1cc(C)ccc1C 0.985%, CSc1cccc(NC(=O)CN(C)S(=O)(=O)c2ccc3c(c2)CCCN3C(C)=O)c1 -1.03%, CCCOc1cccc(C2c3c(oc4cc(C)c(C)cc4c3=O)C(=O)N2CCCN2CCOCC2)c1 (configuration not stated) 5.17%, CCC(=O)N1CCc2cc(S(=O)(=O)NC(C(=O)NCCc3ccc(C)cc3)C(C)C)ccc21 (configuration not stated) -6.39%, COCc1cc(C)n(CC(=O)Nc2cccc(C(C)=O)c2)c(=O)c1C#N 4.49%, Cc1ccc(C)c(C(=O)CSc2nc3cc(C(=O)NC4CCCC4)ccc3c(=O)n2CC2CCCO2)c1 (configuration not stated) -6.04%, CCOc1ccccc1C(=O)N1CCCCC1CCN1CCOCC1 (configuration not stated) -6.14%, Cc1ccc(-c2nc3cc(NC(=O)c4cc(Br)ccc4Cl)ccc3o2)cc1 -10.9%, CC(C)CCNC(=O)c1ccc2c(c1)N(C)C(=O)c1ccccc1S2 14.5%, CC1CCN(S(=O)(=O)c2cn(CC(=O)Nc3ccc(F)cc3)c(=O)c3ccccc23)CC1 -21.3%, CCOc1cc2[nH]c(=O)n(CCCCCC(=O)NC(C)CC)c(=O)c2cc1OCC (configuration not stated) -0.326%, CC(C)c1nn2c(=O)cc(COC(=O)c3ccccc3Cl)nc2s1 -9.86%, O=C(O)CCn1ccc2cc(S(=O)(=O)N3CCCCC3)ccc21 -4.13%, CCn1cc2nc(SCc3cccc(F)c3)n(CCc3ccccc3)c(=O)c2n1 -7.03%, COc1ccc(-c2csc(-c3c(N)c(C(=O)c4ccccc4)n4ccccc34)n2)cc1 -3.83%, O=C(NCc1ccccc1Cl)C1CCN(c2ncnc3c2nc2n3CCCCC2)CC1 0.612%, Cc1nnc(NC(=O)CSCc2cc(=O)c3ccc(C)c(C)c3[nH]2)s1 0%, Cc1cc(C)n2c(Nc3cccc(C(F)(F)F)c3)c(-c3ccsc3)nc2n1 -3.66%, CC(C)c1ccc(S(=O)(=O)c2cnc(SCC(=O)Nc3ccc(F)cc3F)nc2N)cc1 -1.26%, Cc1ccc2oc(=O)c3cc(C(=O)Nc4cccc(C#N)c4)sc3c2c1 -9.24%, Cc1cc(C)cc(-n2ccnc2SCC(=O)Nc2ccc(C)c(Cl)c2)c1 -16.1%, O=C(CN1CCN(c2ccc(Cl)cc2)CC1)Nc1ccc(F)c(F)c1 3.96%, O=C(Cn1nnnc1-c1ccccc1F)Nc1ccc(F)c(F)c1 -3.17%, COc1ccc(NC(=O)c2[nH]nc3c2CSc2ccccc2-3)c(OC)c1 4.44%, CCOc1ccccc1NC(=O)c1nnn(CC(=O)Nc2ccccc2CC)c1N 1.93%, CCOC(=O)N1CCc2c(sc3c2c(=O)n(-c2ccc(F)cc2)c(=O)n3CC(=O)c2ccccc2)C1 -2.13%, Cc1cccc(CN2C(=O)c3ccccc3Sc3ccc(C(=O)NCc4cccs4)cc32)c1 -1.53%, O=C(NCCc1ccccc1)C1COc2ccccc2C1 (configuration not stated) -11.8%, CCc1ccc(NC(=O)c2cc(C)nn2-c2ccccc2)cc1 -7%, CCOC(=O)c1c(C)n(-c2ccccc2)c2ccc(OC(=O)c3cc(OC)cc(OC)c3)cc12 10%, Cc1cc(=O)n(CC(=O)NC(C)c2ccccc2)c2c1c(C)nn2C (configuration not stated) 5.18%, CCOC(=O)c1c(NC(=O)c2cc3ccccc3c(=O)o2)sc2c1CCC(C(C)(C)C)C2 (configuration not stated) 2.71%, CCOc1ccc(NC(=O)CCNS(=O)(=O)c2cccc3nsnc23)cc1 -24.3%, Cc1ccc(Nc2nc(C)c(NC(=O)c3ccc(C)cc3)c(Nc3ccc(C)cc3)n2)cc1 -1.37%, CCS(=O)(=O)N1CCc2cc(C(=O)Nc3cc(OC)c(Cl)cc3OC)ccc21 2.63%, CCOc1ccc(C(=O)Nc2ccc3oc(-c4ccncc4)nc3c2)cc1 2.86%, CCc1cccc(C)c1NC(=O)C(CC)Sc1nncn2c1cc1occc12 (configuration not stated) -18%, CCC(=O)Nc1cc(-c2nc3ccccc3s2)c(Cl)cc1Cl 4.35%, CCCNc1nc2c(c(=O)n(C)c(=O)n2C)n1CC(O)COc1ccccc1 (configuration not stated) 8.33%, COc1ccc(NC(=O)c2oc3ccccc3c2NC(=O)COc2ccc(F)cc2)c(OC)c1 -0.193%, Cn1c(=O)n(C)c2cc(NS(=O)(=O)c3ccc(C(C)(C)C)cc3)c(NCc3ccccc3)cc21 1.51%, Cc1cccc(C(=O)Nc2nnc(S(=O)(=O)N3CCCc4ccccc43)s2)c1 -1.11%, Cc1ccc(NC(=O)Cn2cc(C(=O)C3CCCCC3)c3ccccc32)c(C)c1 0.965%, O=C(c1ccc2c(c1)N(Cc1ccc(Cl)cc1)C(=O)c1ccccc1S2(=O)=O)N1CCc2ccccc21 1.56%, CCC(C(=O)Nc1cccc(C#N)c1)n1nc(-c2ccccc2)ccc1=O (configuration not stated) -10.8%, Cc1ccc(NC(=O)CCCn2nc(C)c3sc4ccccc4c3c2=O)c(Cl)c1 -0.848%, COC(=O)c1ccccc1NC(=O)CSc1nnc2cc(C)c3cc(C)cc(C)c3n12 -5.4%, Cc1ccc(-c2nnc(Nc3cccc(Br)c3)c3ccccc23)cc1S(=O)(=O)NCC1CCCO1 (configuration not stated) -0.426%, O=C(NCc1ccc(F)cc1)C(=O)NCC(c1ccco1)S(=O)(=O)c1cccs1 (configuration not stated) -8.29%, O=C(Cn1ccc2cc(S(=O)(=O)N3CCCC3)ccc21)NCc1ccccc1Cl -1.23%, CCOc1ccc(C2C(=O)N(C3CCCCCC3)CC(=O)N2CCc2ccc(Cl)cc2)cc1OC (configuration not stated) -1.82%, CCN1c2ccccc2-c2nc(SCC(=O)Nc3cc(F)ccc3F)ncc2S1(=O)=O -7.38%, CCOc1ccc(NC(=O)CCn2nc(C)c(S(=O)(=O)N3CCCCC3)c2C)cc1 0%, Cc1nnc(NCc2ccc(F)cc2)c2c1nnn2Cc1ccccc1Cl -2.66%, COc1ccccc1N1CCN(S(=O)(=O)c2c(C)sc3ncn(CC(=O)NCCN(C)C)c(=O)c23)CC1 -3.01%, CCc1ccc(N2C(=O)N(CC(=O)C(C)(C)C)c3ccccc3S2(=O)=O)cc1 -6.79%, O=C(NCCC1=CCCCC1)c1ccc2c(c1)N(Cc1ccc(Cl)cc1)C(=O)c1ccccc1S2(=O)=O -0.0119%, COc1ccc(OC)c(NC(=O)CSC2=Nc3ccccc3C3=NC(CCC(=O)NCCc4ccccc4)C(=O)N23)c1 (configuration not stated) -1.15%, Cc1c(Cl)cccc1NC(=O)Cn1cnc(S(=O)(=O)N2CCCC2)c1 -7.32%, COc1ccc(NC(=O)CC2C(=O)N(c3ccc(C)cc3)C(=O)N2Cc2ccc(C)cc2)cc1 (configuration not stated) 0.385%, CCN(CC)CCCNC(=O)c1nn(-c2ccc(OC)cc2)c(=O)c2c1c1ccccc1n2C 0.618%, O=c1c2ccccc2nc(N2CCN(c3cccc(Cl)c3)CC2)n1-c1ccccc1 4.92%, CCC(C(=O)N1CCN(c2ccc(OC)cc2)CC1)n1nc(C)n2c(cc3occc32)c1=O (configuration not stated) -20.7%, Nc1ccc(S(=O)(=O)NC2(C(F)(F)F)NC(=O)N(c3cccc(Cl)c3)C2=O)cc1 (configuration not stated) -16.7%, COC(=O)c1cccc(CN2C(=O)SC(Nc3ccc(Cl)cc3)C2=O)c1 (configuration not stated) -16.9%, COc1ccc(Nc2c3c(nc4nncn24)CCC3)cc1Cl -12.8%, CCOC(=O)c1noc2ncnc(Nc3cccc(C(F)(F)F)c3)c12 -21.4%, O=C(Nc1ccccc1C(F)(F)F)N1CCC2(CC1)Oc1ccccc1C(=O)N2Cc1ccccc1F -5.94%, COCCNC(=O)c1ccc2c(c1)N(Cc1c(F)cccc1Cl)C(=O)c1ccccc1S2 -1.79%, CCOC(=O)c1c(C)oc2nc(C)nc(NCc3ccc(OC)cc3)c12 2.92%, CCCCOc1ccc(C(=O)Nc2nc3c(s2)CC(C)CC3)cc1 (configuration not stated) -5.79%, CCCc1cc(=O)[nH]c(Nc2ccc(C)c(O)c2)n1 7.97%, CC(=O)Nc1ccc(NC(=O)CCc2c(C)nc3c(c(C)nn3-c3ccccc3)c2C)cc1 -1.81%, Cc1cnc2c(c1SCC(=O)NCc1ccccc1Cl)c(=O)n(C)c(=O)n2C -0.273%, CC(C)(Oc1ccc(Cl)cc1)C(=O)Nc1nnc2n1CCS2 -1.86%, COc1cccc(C(=O)Nc2cccc(OCc3cc(=O)n4cccc(C)c4n3)c2)c1 2.93%, Cc1ccc(NC(=O)CCC(=O)N2CCSc3ccccc32)cc1 -15.3%

Potency, active:
Cc1ccc(C(=O)CC2(O)C(=O)N(Cc3ccccc3)c3ccc(Br)cc32)cc1 (configuration not stated) 10.4 µM

— PubChem BioAssay AID493208 (National Center for Advancing Translational Sciences (NCATS), 2011)
